Measurements as given in PubChem BioAssay AID1346428 (National Center for Advancing Translational Sciences (NCATS), 2018).
“And” between values parts separate entries of the source, which are not always exact repeats. Equal entries are not always repeated. Out of some 48,000 compounds screened, about 1,200 (2.5%) were called active. Not shown: some 2% with an inconclusive outcome.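 Rule for the calls: active = activation of at least 60% and not above a set upper limit (about 1 call in 100 departs from these limits); inconclusive = activation of 40% to 60%, or above that upper limit; inactive = activation under 40%.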 Some of the results follow.

What follows are compounds tested against Probable G-protein coupled receptor 32 (Homo sapiens) (UniProt O75388) (assay: qHTS for Agonists of Human Resolvin D1 Receptor DRV1). Conditions: CHO-K1 GPR32 beta-arrestin PathHunter luminescence, 90 min; at 76.9 µM; stronger effect = higher value; zero percent set by DMSO-only wells.
Sequence of UniProt O75388 (O75388 whole entry, looked up): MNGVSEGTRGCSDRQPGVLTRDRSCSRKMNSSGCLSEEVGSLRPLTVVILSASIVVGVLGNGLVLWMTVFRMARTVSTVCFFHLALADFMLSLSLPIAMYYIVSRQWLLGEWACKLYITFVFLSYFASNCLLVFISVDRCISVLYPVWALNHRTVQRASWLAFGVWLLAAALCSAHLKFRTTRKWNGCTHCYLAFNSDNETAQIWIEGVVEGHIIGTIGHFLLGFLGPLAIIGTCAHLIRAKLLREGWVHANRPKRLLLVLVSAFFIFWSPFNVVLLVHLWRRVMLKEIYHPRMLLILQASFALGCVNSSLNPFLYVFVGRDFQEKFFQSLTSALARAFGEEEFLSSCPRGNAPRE
Excerpt: Endogenous resolution of inflammation is known to be transduced through various GPCRs and their natural mediators of lipid nature. Resolvin D1 (RvD1) is one of the active players in resolution of acute inflammation through regulation of anti-inflammatory pathways; it is known to enhance phagocytosis of human macrophages, limits neutrophils infiltration, etc. […] The search for GPR32-activating small molecules with anti-inflammatory effects similar to its natural omega-3 derivative ligand in order to use them as research tools for further studies of inflammation and its resolution was the goal of this screening project. For primary screening assay, we used CHO-K1 GPR32 beta-arrestin cell line (DiscoveRx, #93-0321C2A) and the PathHunter(R) beta-Arrestin Assay (DiscoveRx) which measures recruitment of beta-arrestin to the GPR32 and generates chemiluminescent signal. These engineered cells stably transfected with GPR32 co-express GPR32-fused small 42-amino acid fragment of beta-Gal called ProLinktrade mark, and […] -tagged beta-Arrestin fusion protein. When GPR32 is activated by a ligand, it stimulates binding of beta -Arrestin to ProLink-tagged GPR32, and two parts of beta-Gal complement forming a functional enzyme. Upon substrate (PathHunter(R) Detection reagent) addition, beta-Gal hydrolyzes it and generates a chemiluminescent signal.
The cells were thawed and plated in thawing media containing F-12 HAM (Invitrogen, #11765-054), 10% FBS (Invitrogen, #10082), 1x Glutamine, and 1x Pen/Strep onto the 175-mm flask for 24 hours. Then, thawing media was replaced with Growth media which contains 800microg/mL Geneticin (Invitrogen, #10131) and 300microg/mL Hygromycin B (Invitrogen, #10687) in addition to described above. For the assay, the cells were harvested at ~80% confluent stage with Cell Dissociation buffer (Gibco, #13151), and seeded at 2,500 cells/ 3microL/well in assay media (PathHunter(R) Cell Plating Reagent, DiscoverX, #93-0563R1B) using MultiDrop Combi dispenser (Thermo Scientific, Logan, UT) onto white solid bottom tissue culture-treated 1536-well plates (Greiner # 789173-F) and allowed to attach overnight at 37 degrees C, 95% humidity, 5% CO2, . Next, 23nL/well of compound solutions in DMSO were added with a Pin Tool (Kalypsis, San Diego, CA) to the assay plates. As the basal control (EC0), 23 nL/well of DMSO was used on each plate. The cells were incubated in the presence of compounds or DMSO for 90 minutes at 37 degrees C, 5% CO2. Subsequently, 1.5microL/well of PathHunter(R) Detection Reagent prepared per the manufacturer's instructions was added to the assay plates with BioRAPTR FRDtrade mark dispenser (Beckman Coulter, San Francisco, CA) and incubated for 1 hour at ambient temperature prior to the measurement of the luminescent signal on ViewLux(R) uHTS Microplate Imager (Perkin Elmer, Waltham, MA).

activation, inactive:
COc1ccc(CNC(=O)Cn2nc3c(cc2=O)CCCC3)cc1 1.35%
Cc1cccc(N2C(=O)N(Cc3cc(=O)n4ccccc4n3)c3ccccc3S2(=O)=O)c1 -9.45%
CCc1ccc(NS(=O)(=O)c2ccc3[nH]cc(C(=O)NCCc4cccc(C)c4)c(=O)c3c2)cc1 -17.3%
COc1ccc(-n2cc(C(=O)OCc3ccc(F)c(F)c3)c3ccccc3c2=O)cc1 -7.26%
Cc1ccc(OC(=O)c2cc(-c3ccc(Cl)cc3)on2)c(C)c1 11.8%
Cc1cccc(N2CCN(C(=O)CCc3c(C)nc4c(c3C)c(=O)n(C)c(=O)n4C)CC2)c1C -2.03%
COc1ccc(C2C(=O)N(C3CCCCC3)CC(=O)N2CCC2=CCCCC2)cc1 (stereo not drawn) -33.1%
O=C(NC1(C(F)(F)F)C(=O)Nc2c1c(=O)[nH]c(=O)n2-c1ccc(F)cc1)c1ccccc1 (stereo not drawn) 6.59%
CCOc1ccc(-n2c(=O)c3sc4ccccc4c3n(Cc3cccc(C)c3)c2=O)cc1 4.71%
CC1CCC(NC(=O)c2ccc3c(c2)N(Cc2ccccc2F)C(=O)c2ccccc2S3=O)CC1 (stereo not drawn) -6.15%
CCOc1ccc(CCNC(=O)Cn2ncn3c(cc4sc(C)cc43)c2=O)cc1OCC -15.2%
Clc1ccc(-c2cn3ncsc3n2)cc1 1.48%
COc1ccc2c(c1)sc1ncc(C(=O)NCc3ccc(Cl)cc3)c(=O)n12 1.07%
CCN1CCN(c2oc(/C=C/c3ccc(OC)c(OC)c3)nc2C#N)CC1 -9.29%
O=C(NCc1ccccc1)C(=O)NCC(c1ccc2c(c1)OCO2)N1CCOCC1 (stereo not drawn) -16.3%
COc1ccccc1NC(=O)c1cc(S(=O)(=O)NCCc2ccccc2)ccc1F -25%
Cc1ccc(CN2CCSc3ccc(C(=O)N4CCN(c5ccc(Cl)cc5)CC4)cc32)cc1 -35.2%
COc1cccc(CNC(=O)C(NS(=O)(=O)c2cccs2)C(C)C)c1 (stereo not drawn) 8.42%
COc1cccc(CNC(=O)c2ccc3nc(N4CCCCC4)sc3c2)c1OC 9.25%
CCCCN1C(=O)c2[nH]nc(-c3ccccc3O)c2C1c1cc(Br)c(O)c(OC)c1 (stereo not drawn) -12%
C[C@]12CCC(=O)C=C1CC[C@@H]1[C@@H]2[C@@H](O)C[C@@]2(C)[C@H]1CC[C@]2(O)C(=O)CO -0.779% and 11%
O=c1c2cccnc2n(Cc2ccccc2F)c(=O)n1Cc1ccc(F)cc1 -30.5%
COc1ccc(NC(=O)Cn2c3ncccc3c(=O)n2-c2ccc(C)c(C)c2)c(OC)c1 -13.6%
